The other results are listed elsewhere or left out. Single values are uncertain, as repeats are few or missing.
Legend:
Experiment in all cases: cell count relative to DMSO control; melanoma cells; higher = more viable cells
Details in all cases: library dose: low library concentration; 72 h
[1] = system: WM115
[2] = system: WM1716
[3] = system: WM1745
[4] = system: WM3526
[5] = system: WM3619
[6] = system: WM451Lu
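Also: cell number obtained by counting DAPI-stained nuclei in high-throughput microscope images with image analysis software, screen run in 1,536-well plates.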

Compound: O=C(Nc1cccc(Cl)c1)Nc1ncc(CCNc2ncnc3ccsc23)s1 + COC(=O)c1sccc1S(=O)(=O)Nc1ccc(Nc2ccccc2)cc1OC [GSK0660] (first compound 0.0008 µM, partner dose 1 µM)
- cell count [1]: 82.4%
- cell count [2]: 116%
- cell count [3]: 95.1%
- cell count [4]: 95.9%
- cell count [5]: 98.9%
- cell count [6]: 96%

Compound: O=c1[nH]nc(Sc2ncc([N+](=O)[O-])s2)n1-c1ccc2c(c1)OCCO2 + CCCCCCCCCCCC1=C(O)C(=O)C=C(O)C1=O [Embelin] (first compound 0.2 µM, partner dose 1.2 µM)
- cell count [1]: 90.6%
- cell count [2]: 97.5%
- cell count [3]: 103%
- cell count [4]: 92.1%
- cell count [5]: 87.1%
- cell count [6]: 114%

Compound: C[C@@H]1CCN(C(=O)CC#N)C[C@@H]1N(C)c1ncnc2[nH]ccc12 + COc1ccc(COc2ccc(Cc3cnc(N)nc3N)cc2OC)cc1 [GW2580] (first compound 1 µM, partner dose 1 µM)
- cell count [1]: 92.6%
- cell count [2]: 94.4%
- cell count [3]: 89.4%
- cell count [4]: 120%
- cell count [5]: 102%
- cell count [6]: 97.3%

Compound: C[C@@H]1CCN(C(=O)CC#N)C[C@@H]1N(C)c1ncnc2[nH]ccc12 + COc1cc(N2CCC(N3CCN(C)CC3)CC2)ccc1Nc1ncc(Cl)c(Nc2ccccc2S(=O)(=O)C(C)C)n1 [NVP-TAE684] (first compound 1 µM, partner dose 0.08 µM)
- cell count [1]: 89.7%
- cell count [2]: 87.6%
- cell count [3]: 73.3%
- cell count [4]: 87.9%
- cell count [5]: 90.8%
- cell count [6]: 92.5%

Compound: C[C@@H]1CCN(C(=O)CC#N)C[C@@H]1N(C)c1ncnc2[nH]ccc12 + O=S(=O)(c1ccccc1)N(CC(F)(F)F)c1ccc(C(O)(C(F)(F)F)C(F)(F)F)cc1 [T0901317] (first compound 1 µM, partner dose 1.4 µM)
- cell count [1]: 93.3%
- cell count [2]: 94.1%
- cell count [3]: 69.6%
- cell count [4]: 81.3%
- cell count [5]: 111%
- cell count [6]: 111%

Compound: CC1(C)NC(=O)N(c2ccc([N+](=O)[O-])c(C(F)(F)F)c2)C1=O [nilutamide] + Cc1ccc(NC(=O)c2cccc(N(C)C)c2)cc1NC(=O)c1ccc(O)cc1 [ZM336372] (first compound 1 µM, partner dose 2 µM)
- cell count [1]: 91.1%
- cell count [2]: 105%
- cell count [3]: 72.6%
- cell count [4]: 95.7%
- cell count [5]: 116%
- cell count [6]: 110%

Compound: O=c1[nH]nc(Sc2ncc([N+](=O)[O-])s2)n1-c1ccc2c(c1)OCCO2 + O=C(Nc1cccc(Cl)c1)Nc1ncc(CCNc2ncnc3ccsc23)s1 [SNS314] (first compound 0.2 µM, partner dose 0.0008 µM)
- cell count [1]: 78.9%
- cell count [2]: 105%
- cell count [3]: 108%
- cell count [4]: 88.1%
- cell count [5]: 95.4%
- cell count [6]: 104%

Compound: O=C(Nc1cccc(Cl)c1)Nc1ncc(CCNc2ncnc3ccsc23)s1 + Cn1cc(/C=C2\C(=O)Nc3cccnc32)c2ccccc21 [GW441756] (first compound 0.0008 µM, partner dose 0.4 µM)
- cell count [1]: 87.3%
- cell count [2]: 124%
- cell count [3]: 96.9%
- cell count [4]: 112%
- cell count [5]: 102%
- cell count [6]: 117%

Compound: O=C(Nc1cccc(Cl)c1)Nc1ncc(CCNc2ncnc3ccsc23)s1 + O=C(O)c1ccc(-c2c[nH]c3ncc(-c4ccccc4)cc23)cc1C1CCCC1 [GSK650394] (first compound 0.0008 µM, partner dose 0.16 µM)
- cell count [1]: 82.9%
- cell count [2]: 112%
- cell count [3]: 85.1%
- cell count [4]: 92.7%
- cell count [5]: 88.9%
- cell count [6]: 108%

Compound: O=C(Nc1cccc(Cl)c1)Nc1ncc(CCNc2ncnc3ccsc23)s1 + Oc1cc(-c2nc(-c3ccccc3)[nH]c2-c2ccncc2)ccc1Cl [L779450] (first compound 0.0008 µM, partner dose 0.2 µM)
- cell count [1]: 75.8%
- cell count [2]: 108%
- cell count [3]: 88.2%
- cell count [4]: 86.6%
- cell count [5]: 92.7%
- cell count [6]: 111%

Compound: C[C@@H]1CCN(C(=O)CC#N)C[C@@H]1N(C)c1ncnc2[nH]ccc12 + CCN(CC)CCCCNc1ncc2cc(-c3cc(OC)cc(OC)c3)c(NC(=O)NC(C)(C)C)nc2n1 [PD173074] (first compound 1 µM, partner dose 0.1 µM)
- cell count [1]: 92.9%
- cell count [2]: 110%
- cell count [3]: 97.5%
- cell count [4]: 107%
- cell count [5]: 114%
- cell count [6]: 113%

Compound: O=c1[nH]nc(Sc2ncc([N+](=O)[O-])s2)n1-c1ccc2c(c1)OCCO2 + COCC[n+]1c2c(n(Cc3cnccn3)c1C)C(=O)c1ccccc1C2=O [YM155] (first compound 0.2 µM, partner dose 0.0004 µM)
- cell count [1]: 105%
- cell count [2]: 97.8%
- cell count [3]: 97.7%
- cell count [4]: 95.9%
- cell count [5]: 102%
- cell count [6]: 73.9%

Compound: O=C(Nc1cccc(Cl)c1)Nc1ncc(CCNc2ncnc3ccsc23)s1 + CN(NC(=O)CC(=O)NN(C)C(=S)c1ccccc1)C(=S)c1ccccc1 [STA4783] (first compound 0.0008 µM, partner dose 0.006 µM)
- cell count [1]: 55.7%
- cell count [2]: 69.4%
- cell count [3]: 52%
- cell count [4]: 90.9%
- cell count [5]: 92.3%
- cell count [6]: 95.2%

Source: the supplement of paper PMC4604168 (melanoma cell lines)
